About 25,000 (6.9%) of roughly 360,000 compounds were called active. The shares of active, inactive and inconclusive entries below differ from those in the screen. Calls follow the shape of the dose curve; as a rule, active = well fitted inhibition curve with a large enough effect; inconclusive = small, poorly fitted or top-dose-only effect; inactive = flat fitted curve, though single readings scatter. Potencies of inconclusive entries are doubtful fits and often do not repeat.
Target: Luciferin 4-monooxygenase (Photinus pyralis) (UniProt P08659)
Test: qHTS profiling assay for firefly luciferase inhibitor/activator using purifed enzyme and Km concentrations of substrates (counterscreen for miR-21 project); also: nearly all actives have a fitted effect of over 55% in size;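 as to activity change, negative = inhibition: plate controls were vehicle for no effect and reference inhibitor for full effect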
Conditions: purified FLuc, luminescence inhibition; activity change, negative = inhibition: at 57.5 µM (top of the series)
In short: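 Biochemical qHTS of compounds, final roughly 60 µM downward over six points, against 10 nM purified firefly luciferase using Km concentrations of substrates (10 uM D-luciferin, 10 uM ATP) in Tris acetate pH 7.5 buffer; luminescence output.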
Potency is read from the fitted curve at half-maximal effect; tags tell the direction and shape of the fitted curve.

Sequence of UniProt P08659 (P08659 whole entry, looked up): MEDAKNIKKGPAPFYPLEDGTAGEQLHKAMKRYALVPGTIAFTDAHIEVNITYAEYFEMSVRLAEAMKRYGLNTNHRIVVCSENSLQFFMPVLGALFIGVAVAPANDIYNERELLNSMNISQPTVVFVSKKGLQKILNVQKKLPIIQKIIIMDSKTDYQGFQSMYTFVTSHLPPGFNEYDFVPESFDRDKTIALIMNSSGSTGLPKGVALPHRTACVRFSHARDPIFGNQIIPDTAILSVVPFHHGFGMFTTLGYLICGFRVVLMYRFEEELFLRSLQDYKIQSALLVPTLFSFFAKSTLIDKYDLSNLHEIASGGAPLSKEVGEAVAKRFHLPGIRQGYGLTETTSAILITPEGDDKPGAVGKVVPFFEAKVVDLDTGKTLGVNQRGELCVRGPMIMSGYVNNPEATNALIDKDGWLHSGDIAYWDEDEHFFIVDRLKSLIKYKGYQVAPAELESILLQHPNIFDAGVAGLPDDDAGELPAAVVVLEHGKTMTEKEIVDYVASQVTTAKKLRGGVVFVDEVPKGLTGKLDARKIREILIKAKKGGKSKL

| Structure (SMILES) | Potency | activity change, negative = inhibition |
| --- | --- | --- |
| Cc1nn(CC(=O)N2CCCc3ccccc32)c(C)c1[N+](=O)[O-] | inconclusive: 37.9 µM [inhibitor, partial curve, poor fit] | – |
| Cc1nn(-c2ccccc2)nc1C(=O)Nc1ccc2[nH]ncc2c1 | inconclusive: 26.9 µM [inhibitor, partial curve, poor fit] | – |
| Clc1ccc2nc(N3CCCCC3)sc2c1 | active: 2.69 µM | – |
| Cc1ccccc1-c1nc2cc(N)ccc2o1 | active: 2.39 µM | – |
| CCCC(=O)Nc1nc(C)c(-c2csc(Nc3ccccc3OC)n2)s1 | inconclusive: 16.9 µM [inhibitor, partial curve] | – |
| CCOC(=O)/C=C/c1cnn(-c2ccccc2)c1 | active: 15.1 µM | – |
| COc1ccccc1C(=O)Nc1ccc2c(C)cc(=O)oc2c1 | inconclusive: 1.69 µM [inhibitor, full curve] | – |
| CCc1ccc(C(=O)C(C)OC(=O)C2COc3ccccc3O2)cc1 (stereo not given) | inconclusive: 37.9 µM [inhibitor, single point] | – |
| CCOC(=O)N1CCN(C(=O)c2cn(CC)c3ccc(S(=O)(=O)N(C)C4CCCCC4)cc3c2=O)CC1 | – | inactive: 0.484% |
| CC(C)NC(=O)NC(=O)COC(=O)c1cc[n+]([O-])cc1 | – | inactive: -0.474% |
| COc1ccc(-c2cn3ccc4ccccc4c3n2)cc1 | active: 0.953 µM | – |
| O=C(c1ccc2c(c1)N(Cc1ccc(F)cc1)C(=O)c1ccccc1S2(=O)=O)N1CCCC1 | – | inactive: 1.59% |
| C/C(=N\NC(=O)c1ccc(O)cc1)c1cc2ccccc2o1 | inconclusive: 26.9 µM [inhibitor, single point] | – |
| CCOC(=O)CCc1c(C)c2ccc(OC(C)C(=O)OCC)c(C)c2oc1=O (stereo not given) | inconclusive: 30.1 µM [inhibitor, single point] | – |
| CC(=O)Nc1ccc(-n2cc(-c3ccccc3)[nH]c2=S)cc1 | inconclusive: 23.9 µM [inhibitor, partial curve, poor fit] | – |
| COc1ccc(/C=C/C(=O)NC(=S)Nc2ccc(C(=O)O)cc2)cc1 | inconclusive: 7.57 µM [inhibitor, partial curve, poor fit] | – |
| CCCCC1(C)OC(=O)C(=Cc2ccc(N(C)C)cc2)C(=O)O1 (stereo not given) | inconclusive: 37.9 µM [inhibitor, partial curve, poor fit] | – |
| CCOC(=O)c1ccc(NC(=S)N2CCC(O)CC2)cc1 | inconclusive: 16.9 µM [inhibitor, partial curve, poor fit] | – |
| COc1ccccc1NC(=O)Nc1ccnn1C1CCN(C(=O)c2cscn2)CC1 | inconclusive: 37.9 µM [inhibitor, single point] | – |
| C=CCn1c(SCc2nc3sc(C(=O)O)c(C)c3c(=O)[nH]2)nnc1-c1ccc(F)cc1 | – | inactive: 5.16% |
| Cc1ccc2onc(CC(=O)N3CCN(c4cc(Cl)ccc4C)CC3)c2c1 | inconclusive: 13.5 µM [inhibitor, partial curve, poor fit] | – |
| O=C(CCN1C(=O)/C(=C/c2ccccc2)SC1=S)NC1CCS(=O)(=O)C1 (stereo not given) | inconclusive: 8.49 µM [inhibitor, partial curve, poor fit] | – |
| O=C(c1ccc(-c2cccc(Cl)c2Cl)o1)N1CCOCC1 | inconclusive: 7.57 µM [inhibitor, partial curve, poor fit] | – |

| Structure (SMILES) | Potency | activity change, negative = inhibition |
| --- | --- | --- |
| COc1ccc2c(c1)C(=O)[C@@H](O)[C@H](c1ccc(OC)c(Br)c1)O2 | inconclusive: 33.8 µM [inhibitor, single point] | – |
| O=C(Cc1ccsc1)NCc1ccccc1F | – | inactive: -1.2% |
| Cc1cc(C)cc(C(=O)OCC(=O)NC(=O)NC2CCCC2)c1 | – | inactive: -3.31% |
| O=C(Nc1ccc(Cl)cn1)c1cc2c(s1)-c1ccccc1OC2 | inconclusive: 2.69 µM [inhibitor, partial curve, poor fit] | – |
| CCC(Oc1ccccc1)C(=O)Nc1cc(-c2cccc(C)c2)nn1-c1ccccc1 (stereo not given) | inconclusive: 37.9 µM [inhibitor, partial curve, poor fit] | – |
| O=C(O)c1cc(NN=C2CCN(Cc3ccccc3)CC2)ccc1Cl | inconclusive: 19 µM [inhibitor, partial curve] | – |
| Cc1ccc(OCCNC(=O)c2ccc(C)cc2)cc1 | inconclusive: 21.3 µM [inhibitor, single point] | – |
| CCCn1c(C)cc(C(=O)COC(=O)c2ccc[nH]c2=O)c1C | active: 2.69 µM | – |
| O=C(NCc1ccco1)c1csc(Nc2ccccc2Cl)n1 | inconclusive: 16.9 µM [inhibitor, partial curve] | – |
| Nc1cnc(CNc2ccccc2Cl)cn1 | inconclusive: 30.1 µM [inhibitor, partial curve, poor fit] | – |
| Cc1cccc(-n2c(SCC(=O)NCC3CCCO3)nc3ccccc3c2=O)c1C (stereo not given) | – | inactive: 3.86% |
| O=C1/C(=C/c2ccc(O)c([N+](=O)[O-])c2)SC(=S)N1Cc1ccccc1 | inconclusive: 37.9 µM [inhibitor, partial curve, poor fit] | – |
| Cc1ccc2c(c1)c1c3n2CCN(C(=O)C2CC2)C3CCC1 (stereo not given) | inconclusive: 26.9 µM [inhibitor, single point] | – |
| CC(C)OC(=O)c1ccc(NC(=O)c2ccccc2)cc1 | active: 15.1 µM | – |
| CC(=O)Nc1ccc(NC(=O)CCc2nc3cccnc3n2Cc2cccs2)cc1 | – | inactive: -6.53% |
| Cc1ccc(C(=O)Nc2ccc3c(c2)n(C)c(=O)c(=O)n3C)cc1 | inconclusive: 37.9 µM [inhibitor, single point] | – |
| Cc1ccc(OCCC(=O)Nc2ccc3c(c2)OCO3)cc1 | – | inactive: -2.75% |
| CCOc1ccc(S(=O)(=O)Nc2nccs2)cc1 | – | inactive: -0.677% |
| O=C(O)c1ccccc1C(=O)OCCc1cc2ccccc2c(=O)o1 | inconclusive: 9.53 µM [inhibitor, single point] | – |
| COc1ccc(-c2nc(C3CCCCC3)no2)cc1OC | active: 15.1 µM | – |
| COc1ccccc1/C=N/NC(=S)Nc1cccnc1 | inconclusive: 26.9 µM [inhibitor, partial curve, poor fit] | – |
| O=C(COc1ccc(/C=N/NS(=O)(=O)c2ccccc2)cc1)NCc1ccccc1 | inconclusive: 26.9 µM [inhibitor, partial curve, poor fit] | – |
